Measurements from article PMC4336329 (PLoS ONE, 2015).
Out of some 310,000 compounds screened, about 2,200 (0.71%) showed an effect of 50% or more. The effect is printed as a negative number. This is one part of the list.

Each compound was assayed against human ether-à-go-go-related gene (hERG) potassium channel (human, UniProt Q12809) (assay: primary screen, population patch clamp on CHO cells stably expressing hERG).
human ether-à-go-go-related gene (hERG) potassium channel, sequence (Q12809 whole entry, looked up): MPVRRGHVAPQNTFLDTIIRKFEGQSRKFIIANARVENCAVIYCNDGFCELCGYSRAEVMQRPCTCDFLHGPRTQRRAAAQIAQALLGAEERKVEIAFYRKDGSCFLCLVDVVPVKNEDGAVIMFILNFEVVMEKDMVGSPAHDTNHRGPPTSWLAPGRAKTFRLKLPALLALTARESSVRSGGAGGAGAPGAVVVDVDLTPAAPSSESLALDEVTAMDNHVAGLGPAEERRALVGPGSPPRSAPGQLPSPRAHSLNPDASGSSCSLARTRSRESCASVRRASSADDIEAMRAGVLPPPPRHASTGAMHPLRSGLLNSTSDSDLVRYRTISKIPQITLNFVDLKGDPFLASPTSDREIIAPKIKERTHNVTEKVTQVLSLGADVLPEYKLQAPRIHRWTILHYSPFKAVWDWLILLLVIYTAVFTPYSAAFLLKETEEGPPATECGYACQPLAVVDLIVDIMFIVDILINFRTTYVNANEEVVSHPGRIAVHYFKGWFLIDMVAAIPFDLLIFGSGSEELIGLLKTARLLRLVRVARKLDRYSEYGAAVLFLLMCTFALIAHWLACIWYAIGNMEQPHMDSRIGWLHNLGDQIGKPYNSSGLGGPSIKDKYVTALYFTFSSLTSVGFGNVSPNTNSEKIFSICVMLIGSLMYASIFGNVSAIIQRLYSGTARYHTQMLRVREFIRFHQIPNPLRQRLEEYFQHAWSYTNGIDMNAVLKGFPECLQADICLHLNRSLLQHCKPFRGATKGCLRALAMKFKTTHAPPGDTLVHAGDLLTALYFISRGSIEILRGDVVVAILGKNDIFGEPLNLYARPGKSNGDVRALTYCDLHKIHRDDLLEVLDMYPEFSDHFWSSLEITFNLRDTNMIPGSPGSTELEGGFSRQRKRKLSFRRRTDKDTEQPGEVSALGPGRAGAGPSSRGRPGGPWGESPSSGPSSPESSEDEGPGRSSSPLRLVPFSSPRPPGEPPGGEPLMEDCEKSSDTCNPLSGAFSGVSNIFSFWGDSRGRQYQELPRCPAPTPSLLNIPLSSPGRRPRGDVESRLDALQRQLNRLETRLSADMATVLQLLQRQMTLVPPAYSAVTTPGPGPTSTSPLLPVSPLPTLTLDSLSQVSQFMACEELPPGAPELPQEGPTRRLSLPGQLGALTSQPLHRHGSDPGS

Row | SMILES | hERG current change (%, negative = inhibition) at 1uM [%]
1 | CNC(C)Cc1ccccc1Sc1ccc(O)cc1.Cl (stereo not shown) | -21.1
2 | Cn1c(SCC(=O)c2c(N)n(C)c(=O)n(C)c2=O)nnc1-c1ccc(F)cc1 | 13.5
3 | CCCCC(=O)OCc1c(-c2ccccc2)ncc2ccccc12 | 11.4
4 | Cc1ccc(C(=O)NCC2CCCN2S(=O)(=O)c2ccc(C)cc2)cc1 (stereo not shown) | 3.74
5 | CCC1S/C(=N\S(=O)(=O)c2cccs2)N(C2CCCCC2)C1=O (stereo not shown) | 12.1
6 | COc1ccc(NC(=O)COC(=O)c2n[nH]c3ccccc23)c(OC)c1 | 13.5
7 | Br.N#Cc1ccc(CSC2=NCCN2)cc1 | 5.51
8 | Cc1nn(Cc2ccccc2)c(C)c1C(=O)OCC(=O)NCc1ccco1 | -7.85
9 | Cn1c(=O)c(=O)n(C)c2cc([N+](=O)[O-])c(N3CCOCC3)cc21 | 8.95
10 | Cc1ccnc(NC(=O)CS(=O)(=O)c2ccccc2)c1 | 7.52
11 | Cc1ccc(S(=O)(=O)NNC(=O)C2CCCCC2)cc1 | 12.5
12 | COC(=O)COc1ccc(-n2cnnn2)cc1 | 17.7
13 | CC(=O)Nc1ccc(S(=O)(=O)NCC2CCC(C(=O)NC(C)c3ccccc3)CC2)cc1 (stereo not shown) | 11.7
14 | COC1=CC(=O)CC(C)C12Oc1cc(OC)cc(OC)c1C2=O (stereo not shown) | 6.8
15 | Cc1cccc(S(=O)(=O)C(C#N)c2nc3ccccc3nc2N2CCCC2)c1 (stereo not shown) | -12.6
16 | Cc1cc(C)c2c(n1)SCC(=O)N2CC(=O)Nc1cc(F)ccc1F | 3.81
17 | CC1CCN(c2nc(-c3ccccc3)cc(C(F)(F)F)n2)CC1 | 2.64
18 | C/C(=N\NC(=O)C1CC1)c1ccc(Cl)cc1 | 12.7
19 | Cc1cc(N2CCN(C(=O)c3ccco3)CC2)n2nc(-c3cccc(Cl)c3)cc2n1 | 11.5
20 | Cc1ccc(O)c(C2=NOC(O)(C(F)(F)F)C2)c1 (stereo not shown) | 1.79

Row | SMILES | hERG current change (%, negative = inhibition) at 1uM [%]
21 | O=C(O)CCCC(=O)N1CCc2cc(S(=O)(=O)NCc3ccc(F)cc3)ccc21 | -1.1
22 | O=C(CSc1nc2ccccc2o1)N1c2ccccc2Sc2ccc(Cl)cc21 | 2.38
23 | CCOC(=O)N1N=C(c2ccc(OC)cc2)CC1(O)C(F)(F)F (stereo not shown) | 18.5
24 | Cc1ccc(S(=O)(=O)/C(C#N)=C/c2c(Oc3ccc(Cl)cc3)nc3c(C)cccn3c2=O)cc1 | 12.7
25 | CC(=O)Nc1nc(C2COc3ccccc3O2)cs1 (stereo not shown) | 13
26 | O=C(c1nc2ccccn2c1CN1CCCC(OCc2ccccc2)C1)N1CCCC1 (stereo not shown) | -25.7
27 | CSc1nc2[nH]ncc2c(=O)[nH]1 | 0.469
28 | Cc1ccc(C(=O)NCc2ccc(N3CCN(C(=O)OC(C)(C)C)CC3)cc2)cc1 | 11.4
29 | CCC(=O)N(C1=C(NC)C(=O)c2ccccc2C1=O)C(C)C | 7.58
30 | Cc1ccc(C)c(NC(=O)CSc2nc(C)cc(C)c2C#N)c1 | 12.2
31 | N#CC(Cc1ccccc1OC(F)F)c1nc2ccccc2[nH]1 (stereo not shown) | -0.805
32 | CCCCc1nc2ccccc2c(NC(=O)CN(CC)CC)c1CCC.O=C(O)C(=O)O | -6.48
33 | C/C(CC(=O)Nc1cccc(C(F)(F)F)c1)=N\NC(=O)Cc1ccccc1 | 12.9
34 | CCCP(=O)(CCC)CCP(=O)(c1ccccc1)c1ccccc1 | 11.1
35 | O=C(CSc1nc2[nH]ncc2c(=O)[nH]1)NCCc1ccccc1 | 17.8
36 | Cc1cc(NC(=NC2CC2)c2ccccc2F)n(-c2ccccc2)n1 | 1.72
37 | COc1cc(CCC(=O)OCC(=O)Nc2ccc(Br)cc2F)cc(OC)c1OC | 12.9
38 | CC(=O)c1cc(F)c(N2CCN(c3ccc([N+](=O)[O-])cc3F)CC2)cc1C | -5.4
39 | Oc1ccc(N=Nc2ccccc2)o1 | 19.1
40 | N#CCCN(C(=O)COc1ccc(Cl)cc1Cl)c1ccccc1 | 7.12

Row | SMILES | hERG current change (%, negative = inhibition) at 1uM [%]
41 | CC12CCC(=O)N1C(C(=O)Nc1nc(-c3ccc(F)cc3)cs1)CS2 (stereo not shown) | 9.66
42 | CCOC(=O)c1c(NC(=O)C2=C(C)NC(=S)NC2c2ccc(CC)cc2)sc(C)c1C (stereo not shown) | 0.698
43 | CCOc1ccc2ccccc2c1/C=N/NC(=O)CNC(=O)c1ccccc1O | 7.53
44 | O=C(C1COc2ccccc2O1)N1CCN(c2ccccc2O)CC1 (stereo not shown) | 7.16
45 | CSc1ccc(CN(C)C(=O)c2cccc(S(=O)(=O)NCc3ccccc3)c2)cc1 | 12.3
46 | O=C1C=C(c2cccc(Br)c2)C[C@@H](c2ccc(F)cc2)C1 | 14.8
47 | CSc1ccccc1NC(=O)CN1CCN(Cc2ccccc2)CC1 | -17.4
48 | O=C(/C=C/c1ccco1)N(Cc1ccccc1F)C1CCS(=O)(=O)C1 (stereo not shown) | 6.88
49 | Nc1nonc1-n1nnc(C(=O)N/N=C/c2ccncc2)c1-c1ccccc1 | 11.2
50 | CC1=NNC(=O)C1CCC(=O)N/N=C\c1ccc(Cl)c(Cl)c1 (stereo not shown) | 4.35
51 | CCN(CC)CCCNC(=O)c1cc2nc3c(c(C(F)(F)F)n2n1)CCc1ccccc1-3 | 2.32
52 | CC(=O)Nc1ccccc1C(=O)OCc1ccccc1F | 12
53 | Cc1cc(C)cc(C(=O)N2CCC3(CC2)NCCc2[nH]cnc23)c1 | 17.9
54 | O=C(Nc1nnc(C2CCCO2)s1)c1cccs1 (stereo not shown) | 4.73
55 | CCn1cnc2c1c(=O)n(CC(=O)Nc1cc(C)on1)c(=O)n2Cc1ccccc1 | 11.8
56 | O=C(CC(=O)NCc1cccnc1)NCc1cccnc1 | 11.8
57 | Cc1cc(C)c(S(=O)(=O)NCc2csc(C)n2)c(C)c1 | 15.7
58 | CCS(=O)(=O)N1CCN(c2ncnc3sc(C)c(C)c23)CC1 | -14.2
